Laboratory results reported in PubChem BioAssay AID1347165 (National Center for Advancing Translational Sciences (NCATS), 2019).
Screen size: about 220,000 compounds; about 5,700 (2.6%) were called active. The inconclusive results got no clear call from the source; some entries with a clear call stand among them for comparison. Calls follow the shape of the dose curve; as a rule, active = well fitted inhibition curve with a large enough effect; inconclusive = small, poorly fitted or top-dose-only effect; inactive = no such curve, though single readings can be large or run the other way. Potencies of inconclusive entries are doubtful fits and often do not repeat.

What follows are compounds tested against Lysine-specific demethylase 5B (Homo sapiens) (UniProt Q9UGL1) (assay: Primary screen for KDM5B Histone Demethylases FDH-coupled qHTS). Conditions: FDH-coupled NADH fluorescence (FDH is formaldehyde dehydrogenase); activity change, negative = inhibition: at 57.7 µM (top of the series) unless noted.
UniProt Q9UGL1, sequence (Q9UGL1 whole entry, looked up): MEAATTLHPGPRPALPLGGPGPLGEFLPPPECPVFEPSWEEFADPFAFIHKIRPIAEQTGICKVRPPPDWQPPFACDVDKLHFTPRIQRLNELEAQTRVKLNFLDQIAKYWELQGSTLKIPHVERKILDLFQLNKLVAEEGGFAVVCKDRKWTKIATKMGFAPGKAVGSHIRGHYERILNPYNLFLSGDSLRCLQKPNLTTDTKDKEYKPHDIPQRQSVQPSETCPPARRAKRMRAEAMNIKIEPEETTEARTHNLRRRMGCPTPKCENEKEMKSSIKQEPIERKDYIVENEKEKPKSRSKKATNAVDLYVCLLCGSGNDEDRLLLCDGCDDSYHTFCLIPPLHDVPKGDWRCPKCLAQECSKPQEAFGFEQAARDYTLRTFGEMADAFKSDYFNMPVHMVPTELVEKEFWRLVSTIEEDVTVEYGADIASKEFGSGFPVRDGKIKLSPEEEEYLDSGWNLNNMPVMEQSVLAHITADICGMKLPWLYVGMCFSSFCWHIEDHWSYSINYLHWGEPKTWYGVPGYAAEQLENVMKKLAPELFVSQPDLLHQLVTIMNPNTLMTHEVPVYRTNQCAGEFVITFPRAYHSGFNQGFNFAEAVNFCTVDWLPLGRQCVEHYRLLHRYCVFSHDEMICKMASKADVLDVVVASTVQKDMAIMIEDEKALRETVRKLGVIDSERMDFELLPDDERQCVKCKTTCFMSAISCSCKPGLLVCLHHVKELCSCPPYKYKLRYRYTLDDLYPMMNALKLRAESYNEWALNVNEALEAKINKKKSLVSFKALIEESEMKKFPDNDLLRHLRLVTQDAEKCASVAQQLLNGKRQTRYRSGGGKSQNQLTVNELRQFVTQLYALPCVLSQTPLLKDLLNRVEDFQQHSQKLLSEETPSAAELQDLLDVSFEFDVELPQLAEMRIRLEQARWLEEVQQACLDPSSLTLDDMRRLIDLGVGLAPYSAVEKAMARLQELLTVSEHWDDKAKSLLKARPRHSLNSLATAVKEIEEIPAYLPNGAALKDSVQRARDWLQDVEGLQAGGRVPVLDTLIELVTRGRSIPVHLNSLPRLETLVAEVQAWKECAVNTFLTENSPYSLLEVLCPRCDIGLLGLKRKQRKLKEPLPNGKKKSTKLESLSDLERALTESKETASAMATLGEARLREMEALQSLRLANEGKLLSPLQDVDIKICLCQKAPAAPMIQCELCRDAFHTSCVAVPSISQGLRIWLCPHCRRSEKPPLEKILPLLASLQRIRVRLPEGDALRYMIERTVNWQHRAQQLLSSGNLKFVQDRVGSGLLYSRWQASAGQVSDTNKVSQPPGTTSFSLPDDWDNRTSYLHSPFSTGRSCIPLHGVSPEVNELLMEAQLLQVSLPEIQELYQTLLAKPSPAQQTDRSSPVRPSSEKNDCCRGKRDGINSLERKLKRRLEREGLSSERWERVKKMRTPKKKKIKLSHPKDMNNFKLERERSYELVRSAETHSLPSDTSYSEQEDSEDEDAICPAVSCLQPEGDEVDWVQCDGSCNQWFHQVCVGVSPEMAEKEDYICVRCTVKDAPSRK
Procedure, shortened: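 KDM5BΔAP (200 nM final) in 50 mM HEPES pH 7.5, 0.01% Tween-20 was preincubated 10 min at RT with compound over a concentration range. Substrate mix (H3K4me3 12.5 µM, α-KG 25 µM, Fe²⁺, ascorbate, NAD⁺, FDH) was added, and NADH fluorescence change over 30 min gave dose-response curves.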
Also: nearly all actives have a fitted effect of over 70% in size.
For activity change, negative = inhibition in this document: 0% is about no effect.
Potency is read from the fitted curve at half-maximal effect; tags tell the direction and shape of the fitted curve.

Row | Compound | Potency | activity change, negative = inhibition
1 | COc1ccc(C(=O)N/N=C\c2ccc(OC)c(COc3ccccc3Br)c2)c(OC)c1 | inconclusive: 25.1 µM [inhibitor, partial curve, poor fit] | 
2 | COc1ccc(C(=O)c2c(N)c(C(=O)Nc3ccccc3Cl)c3ccccn23)cc1 |  | inconclusive: -34% [inhibitor]
3 | O=C(COc1ccc2oc3c(c2c1)CCCC3)Nc1cccc(Br)c1 |  | inconclusive: -35.8% [inhibitor]
4 | O[C@H]1CN[C@H](c2nc(-c3ccccn3)no2)C1 | inconclusive: 50.1 µM [inhibitor, partial curve, poor fit] | 
5 | COc1ccc(N2CC3CCC(C2)N3C(=O)c2ccc3c(c2)OCO3)cc1 |  | inactive: -26.5% [at 115 µM]
6 | COc1ccccc1CNc1nc(-c2ccc(CNC(C)=O)cc2)cs1 | inconclusive: 10 µM [inhibitor, partial curve, poor fit] | 
7 | COc1cc(Cl)ccc1C(=O)NCc1nnc2c(-c3nc(C4CC4)no3)cccn12 |  | inactive: -27%
8 | CCn1c(CO)nnc1C1CC(NC(=O)c2sccc2N)C1 (centres undefined) | active: 11.2 µM | 
9 | COc1ccc2nc3n(c2c1)[C@@H](CNC(=O)c1ccccc1)COC3 | inconclusive: 31.6 µM [inhibitor, partial curve] | 
10 | O=C(Cc1ccccc1F)N1CCCN(c2cc(-c3ccc(Cl)cc3)[nH]n2)CC1 | active: 10 µM | 
11 | Cc1ccc2cccc(NC(=O)C(C)Oc3ccc(Cl)c(C)c3)c2n1 (centres undefined) |  | inactive: 19.4%
12 | c1ccc(-c2noc(-c3ccn4c(CN5CCOCC5)nnc4c3)n2)cc1 | inconclusive: 10 µM [inhibitor, partial curve] | 
13 | Cc1ccc(C)c(NC(=O)c2cc3c(N4CCSCC4)nc(C)cn3n2)c1 | active: 31.6 µM | 
14 | COc1ccc(CCNC(=O)c2ccc(Cn3c(=O)c4ccccc4n(Cc4cccc(F)c4)c3=O)cc2)cc1OC |  | inactive: -11.2%
15 | COc1ccccc1NC(=O)c1ccc(NC(=O)c2nn(C)c(=O)c3ccccc23)cc1 | inconclusive: 20 µM [inhibitor, single point] | 
16 | CC(=O)c1c2ccccc2cc2ccccc12 | inconclusive: 10 µM [inhibitor, partial curve, poor fit] | 
17 | COc1ccc(-c2cc(C(=O)NCC(F)(F)F)c3c(C4CCCN4)nn(C)c3n2)cc1 (centres undefined) | inconclusive: 50.1 µM [inhibitor, partial curve, poor fit] | 
18 | O=C(O)CCc1ccnc(N2CCCC2)c1 | inconclusive: 20 µM [inhibitor, single point] | 
19 | O=c1c2c(-c3cccs3)csc2nc(CN2CCOCC2)n1CCOc1ccccc1Cl | inconclusive: 35.5 µM [inhibitor, single point] | 
20 | Cc1cc2c(cc1NS(=O)(=O)c1cccc(C#N)c1)n(C)c(=O)c(=O)n2C | inconclusive: 39.8 µM [inhibitor, single point] | 
21 | COC(=O)c1ccn(Cc2c(Cl)cccc2Cl)n1 |  | inactive: -3.4%
22 | COc1ccc(S(=O)(=O)N2CCc3nn(C)c(=O)n3CC2)cc1Cl |  | inactive: 5.14%
23 | CCc1cccc(C)c1NC(=O)Cn1nnc(-c2nc(-c3ccccc3F)no2)c1N |  | inactive: 2.62%

Row | Compound | Potency | activity change, negative = inhibition
24 | Cc1ccc(CNC(=O)c2ccc3nccn3c2)o1 | active: 28.2 µM | 
25 | CN(C)CCNC(=O)C1(C)CN(Cc2ccccc2)Cc2ccc(N3CCOCC3)nc21 (centres undefined) | active: 35.5 µM | 
26 | COc1ccccc1-c1ccnc(N[C@H]2CO[C@H]3[C@@H]2OC[C@@H]3NS(=O)(=O)c2ccc3ccccc3c2)n1 | inconclusive: 28.2 µM [inhibitor, single point] | 
27 | Cc1ccc(C)c(-n2nc(-c3c(C)nc4scc(CC(=O)N5CCOCC5)n4c3=O)cc2C)c1 | active: 28.2 µM | 
28 | COC(=O)c1sccc1NC(=O)c1cccc(Cl)c1 | inconclusive: 10 µM [inhibitor, partial curve, poor fit] | 
29 | COc1ccc2c(c1)c1c(c(=O)n(Cc3ccccc3)c(=O)n1Cc1cccc(Cl)c1)n2C | inconclusive: 17.8 µM [inhibitor, partial curve, poor fit] | 
30 | Cc1cc(C)c2oc(-c3ccc(Cl)c(NC(=O)c4cccs4)c3)nc2c1 | inconclusive: 2 µM [inhibitor, full curve, poor fit] | 
31 | CCOc1nccn2c(-c3ccc(CN4CCN(C(C)=O)CC4)cc3)cnc12 | inconclusive: 35.5 µM [inhibitor, single point] | 
32 | CCCSc1nc(-c2ccccc2)[nH]c1S(=O)(=O)c1ccc(C)cc1 | inconclusive: 35.5 µM [inhibitor, single point] | 
33 | Cc1cc(C(=O)Nc2ccc(Cl)cc2)c(C)n1-c1ccccc1 |  | inactive: -12.7%
34 | COc1ccc(-c2cc3ccc(O)c(CN4CCCC4)c3oc2=O)cc1 | inconclusive: 28.2 µM [inhibitor, partial curve, poor fit] | 
35 | COc1ccc2cc(-c3cc(C(=O)O)c4ccccc4n3)ccc2c1 | inconclusive: 25.1 µM [inhibitor, partial curve, poor fit] | 
36 | CC1=C(c2ccc(C)cc2)S(=O)(=O)N(Cc2ccc(C(=O)Nc3ccc(C)c(F)c3)cc2)C1=O | inconclusive: 14.1 µM [inhibitor, partial curve, poor fit] | 
37 | Cc1oc(-c2cccs2)nc1CN1CCC(CO)(CCOc2ccccc2)CC1 | inconclusive: 39.8 µM [inhibitor, partial curve, poor fit] | 
38 | CC(=O)NC1CCN(Cc2cc3ccc(C)cc3[nH]c2=O)C1 (centres undefined) | inconclusive: 25.1 µM [inhibitor, single point] | 
39 | CCN1C(=O)N/C(=C/c2cn(CC)c3ccccc23)C1=O |  | inactive: 0.963%
40 | Cc1ccc(-c2ccc(CCC(=O)O)n2-c2ccc(C(N)=O)cc2)cc1 | inconclusive: 20 µM [inhibitor, single point] | 
41 | NS(=O)(=O)c1ccc(NC(=O)CN(Cc2ccc3c(c2)OCO3)C2CCCC2)cc1 |  | inactive: -20.1%
42 | O=C(Cc1cccs1)NC1CCCc2c1[nH]c1c(Cl)cccc21 (centres undefined) | inconclusive: 10 µM [inhibitor, partial curve] | 
43 | Cc1cc(C)cc(C(=O)NCCn2c(C)cc3ccccc32)c1 |  | inactive: 8.65%
44 | CNc1nccc(N2CCC(CC(=O)NCCCN3CCc4ccccc4C3)CC2)n1 | inconclusive: 20 µM [inhibitor, partial curve] | 
45 | COc1cccc(-c2noc(CC3CCN(C(=O)c4cc(Cl)ccc4F)CC3)n2)c1 | inconclusive: 35.5 µM [inhibitor, partial curve, poor fit] | 
46 | COc1cccc(-c2ccccc2NC(=O)C2CCN(c3nccnc3C)CC2)c1 | inconclusive: 39.8 µM [inhibitor, single point] | 

Row | Compound | Potency | activity change, negative = inhibition
47 | Cc1ccc(Nc2cccc3ccccc23)cc1 | inconclusive: 3.16 µM [inhibitor, full curve, poor fit] | 
48 | Fc1ccc(-c2cnc([C@@H]3COCCN3CC3CC3)[nH]2)cc1 |  | inactive: -16.4% [at 86.2 µM]
49 | COC(=O)C1CN(Cc2cn(Cc3ccc(C)cc3)nn2)CCS(=O)(=O)N1Cc1ccc(Cl)cc1 (centres undefined) |  | inactive: -26.1%
50 | COc1cccc(Nc2ccc3c(n2)C(C)(C(=O)NCCc2ccccn2)CN(C)C3)c1 (centres undefined) | inconclusive: 22.4 µM [inhibitor, partial curve, poor fit] | 
51 | CCOC(=O)c1cc(-c2csc(Nc3c(C)cc(C)cc3C)n2)on1 | inconclusive: 25.1 µM [inhibitor, partial curve, poor fit] | 
52 | CCn1nc(-c2ccccc2SC)nc1N(C)C |  | inactive: 33.2%
53 | COc1cc2c(cc1OC)C(COc1ccc3c(C)cc(=O)oc3c1)N(C(=O)c1ccccc1C)CC2 (centres undefined) | inconclusive: 15.8 µM [inhibitor, partial curve, poor fit] | 
54 | Cc1cc(NS(=O)(=O)Cc2ccccc2)cc2sc(NC(=O)c3ccccc3)nc12 | inconclusive: 35.5 µM [inhibitor, partial curve, poor fit] | 
55 | CCOc1ccccc1CN1CCC2(CCN(C(=O)c3cccc(Cl)c3)CC2)Oc2ccccc21 | active: 25.1 µM | 
56 | CCN(CC)CCNCc1sccc1C |  | inactive: 17.8%
57 | COCCNc1ncccc1-c1cc(-c2ccccc2)nc2c(C)noc12 | active: 31.6 µM | 
58 | COCC1CN(C2CCC2)CC12CCN(C(=O)Cn1cccn1)CC2 (centres undefined) | inconclusive: 17.8 µM [inhibitor, partial curve] | 
59 | c1cnc(N2CCN(c3ncc4c(n3)CCNC4)CC2)nc1 | inconclusive: 25.1 µM [inhibitor, partial curve, poor fit] | 
60 | O=C(NCCn1ccn2nc(-c3ccc(F)cc3)cc2c1=O)c1ccoc1 | inconclusive: 31.6 µM [inhibitor, partial curve, poor fit] | 
61 | O=C(Cn1ccn2nc3c(c2c1=O)CCCC3)Nc1ccc2c(c1)OCCO2 | inconclusive: 28.2 µM [inhibitor, partial curve] | 
62 | Cc1[nH]c2ccccc2c1-c1csc(NC(=O)C2CCOCC2)n1 |  | inactive: -2.47%
63 | Cc1cccc(-n2cc(-c3ccccc3)c3c(N4CCCC4)ncnc32)c1 | inconclusive: 39.8 µM [inhibitor, single point] | 
64 | COc1ccc(/C=N/Nc2ncnc3c2[nH]c2ccc(C)cc23)c(OC)c1OC | inconclusive: 10 µM [inhibitor, partial curve, poor fit] | 
65 | O=C(c1cc2cn(C3CC3)cc2s1)N1CCN(c2ccccn2)CC1 | inconclusive: 12.6 µM [inhibitor, partial curve] | 
66 | CC(C)c1nc(-c2ccc(OC3CCN(C(=O)c4cc(F)ccc4F)C3)cc2)no1 (centres undefined) |  | inactive: 9.15%
67 | CN1CCOc2ccc(S(=O)(=O)NCc3ccc4c(c3)OCO4)cc21 |  | inactive: -14%
68 | CCCCOc1ccc2c(=O)c(-c3ccc4c(c3)OCCCO4)c(C)oc2c1 |  | inactive: -1.54%
69 | O=C(CCCc1nc2ccccc2s1)Nc1cccc(C(F)(F)F)c1 |  | inactive: -6.83%
